Description: The logP values were determined in accordance with EEC Directive 79/831 Annex V. A8 by HPLC (gradient method, acetonitrile/0.1% aqueous phosphoric acid)

Structure (SMILES)	logP
COC(=O)C(=COCF)c1ccccc1COc1ccn(-c2ccc(C(C)(C)C)cc2)n1 [Example 2]	4.63
COC(=O)C(=COCF)c1ccccc1COc1ccn(-c2ccc(F)cc2)n1 [Example 3]	3.49
COC(=O)C(=COCF)c1ccccc1COc1ccn(-c2ccc(C(C)C)cc2)n1 [Example 4]	4.39
COC(=O)C(=COCF)c1ccccc1COc1ccn(-c2cccc(Br)c2)n1 [Example 5]	4
COC(=O)C(=COCF)c1ccccc1COc1ccn(-c2ccc(Br)cc2)n1 [Example 6]	4.04
COC(=O)C(=COCF)c1ccccc1COc1ccn(-c2cc(Cl)cc(Cl)c2)n1 [Example 7]	4.59
COC(=O)C(=COCF)c1ccccc1COc1ccn(-c2ccccc2Cl)n1 [Example 8]	3.59
COC(=O)C(=COCF)c1ccccc1COc1ccn(-c2ccc(C#N)cc2)n1 [Example 9]	3.24
COC(=O)C(=COCF)c1ccccc1COc1ccn(-c2ccc(C)cc2)n1 [Example 10]	3.77
COC(=O)C(=COCF)c1ccccc1COc1ccn(-c2ccc(Cl)cc2Cl)n1 [Example 11]	4.15
COC(=O)C(=COCF)c1ccccc1COc1ccn(-c2ccccc2Br)n1 [Example 12]	3.61
COC(=O)C(=COCF)c1ccccc1COc1ccn(-c2ccccc2)n1 [Example 13]	3.45
COC(=O)C(=COCF)c1ccccc1COc1ccn(-c2c(Cl)cc(C(F)(F)F)cc2Cl)n1 [Example 14]	4.23
COC(=O)C(=COCF)c1ccccc1COc1ccn(-c2c(Cl)cccc2Cl)n1 [Example 15]	3.52
COC(=O)C(=COCF)c1ccccc1COc1ccn(-c2cccc(C)c2)n1 [Example 16]	3.77
COC(=O)C(=COCF)c1ccccc1COc1ccn(-c2ccc(F)cc2F)n1 [Example 17]	3.64
COC(=O)C(=COCF)c1ccccc1COc1ccn(-c2cccc(Cl)c2)n1 [Example 18]	3.92
COC(=O)C(=COCF)c1ccccc1COc1ccn(-c2cccc(Cl)c2Cl)n1 [Example 19]	3.95
COC(=O)C(=COCF)c1ccccc1COc1ccn(-c2cc(Cl)ccc2Cl)n1 [Example 20]	4.11

— patent US6562856B1, “Pyrazolyl benzyl ether deriviatives having a fluoromethoxy group and the use thereof as pesticides” (Bayer Aktiengesellschaft, priority 1999, dated 2003)
